{"sequences": {"note": "Amino acid sequences for entries named in this document (tags omitted). Residues count along the entry.", "UniProt P14211, residues 18-416": "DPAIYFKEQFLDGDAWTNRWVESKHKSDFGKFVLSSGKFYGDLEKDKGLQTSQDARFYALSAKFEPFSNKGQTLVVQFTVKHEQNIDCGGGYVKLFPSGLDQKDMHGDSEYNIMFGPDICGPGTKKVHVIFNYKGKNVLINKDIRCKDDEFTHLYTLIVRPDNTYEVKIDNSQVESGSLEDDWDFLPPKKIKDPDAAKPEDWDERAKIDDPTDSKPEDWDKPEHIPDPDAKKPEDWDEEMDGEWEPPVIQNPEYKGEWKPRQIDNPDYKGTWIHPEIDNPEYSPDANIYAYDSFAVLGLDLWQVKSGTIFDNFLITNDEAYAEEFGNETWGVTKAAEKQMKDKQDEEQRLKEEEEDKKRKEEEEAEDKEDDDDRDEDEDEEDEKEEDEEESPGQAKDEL", "UniProt Q15848, residues 19-244": "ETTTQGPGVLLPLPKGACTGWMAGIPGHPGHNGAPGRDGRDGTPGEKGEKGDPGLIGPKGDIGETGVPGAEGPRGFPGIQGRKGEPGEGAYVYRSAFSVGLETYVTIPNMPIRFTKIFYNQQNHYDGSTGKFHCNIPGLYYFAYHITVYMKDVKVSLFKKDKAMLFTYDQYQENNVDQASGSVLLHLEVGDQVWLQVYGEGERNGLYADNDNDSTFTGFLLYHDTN"}, "source": "paper PMC6822988", "about": "“Native adiponectin in serum binds to mammalian cells expressing T-cadherin, but not AdipoRs or calreticulin” (eLife, 2019)", "molecules": {"B1": {"name": "native mouse adiponectin in mouse serum (ligand, UniProt Q60994 18-247, looked up)", "chain": "EDDVTTTEELAPALVPPPKGTCAGWMAGIPGHPGHNGTPGRDGRDGTPGEKGEKGDAGLLGPKGETGDVGMTGAEGPRGFPGTPGRKGEPGEAAYVYRSAFSVGLETRVTVPNVPIRFTKIFYNQQNHYDGSTGKFYCNIPGLYYFSYHITVYMKDVKVSLFKKDKAVLFTYDQYQEKNVDQASGSVLLHLEVGDQVWLQVYGDGDHNGLYADNVNDSTFTGFLLYHDTN", "notes": "adiponectin, mouse, circulating protein of serum; multimers (6-mer and HMW multimer) seen by native-PAGE; Used both as whole serum and as adiponectin purified from serum; Mixture of multimers; also called mouse serum adiponectin; native adiponectin; source: endogenous, serum of C57BL6J mice, used as serum without processing; also purified from mouse serum (Fukuda et al., 2017)"}, "B2": {"name": "Full-length mammalian recombinant mouse adiponectin (ligand, UniProt Q60994 18-247, looked up)", "chain": "B1 chain", "notes": "adiponectin, mouse, full-length recombinant, produced in HEK293 cells; contains less 6-mer and HMW multimer than serum adiponectin; the secreted product probably lacks the signal peptide; also called recombinant adiponectin; full-length recombinant adiponectin produced in HEK293 cells; source: bought: BioVendor (RD272023100), produced in HEK293 cells"}, "B3": {"name": "native mouse adiponectin in mouse serum, Q60994 18-247 (ligand)", "chain": "B1 chain"}, "B4": {"name": "Full-length mammalian recombinant mouse adiponectin, Q60994 18-247 (ligand)", "chain": "B1 chain"}}, "key": {"[1]": {"target": "T1, human AdipoR1 expressed on HEK293 cells (human) (UniProt Q96A54)", "T1 sequence": "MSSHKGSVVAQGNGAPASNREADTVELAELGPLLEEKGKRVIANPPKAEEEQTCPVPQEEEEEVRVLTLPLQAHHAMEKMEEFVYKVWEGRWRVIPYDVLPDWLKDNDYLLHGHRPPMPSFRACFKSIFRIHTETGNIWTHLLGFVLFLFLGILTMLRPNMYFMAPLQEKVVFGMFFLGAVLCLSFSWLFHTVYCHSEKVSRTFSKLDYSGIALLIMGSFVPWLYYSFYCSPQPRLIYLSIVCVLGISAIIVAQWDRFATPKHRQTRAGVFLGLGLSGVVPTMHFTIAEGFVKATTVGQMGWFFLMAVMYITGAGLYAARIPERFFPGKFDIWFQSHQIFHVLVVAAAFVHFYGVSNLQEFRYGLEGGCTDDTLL", "assay": "cell-based binding, bound adiponectin detected by Western blot of the cell lysate; mouse or human serum diluted in serum-free DMEM applied to transiently transfected HEK293 cells, 4°C, 1 hr, washed three times; lysates on SDS-PAGE or native-PAGE"}, "[2]": {"target": "T2, human T-cadherin expressed on HEK293 cells (human) (UniProt P55290)", "T2 sequence": "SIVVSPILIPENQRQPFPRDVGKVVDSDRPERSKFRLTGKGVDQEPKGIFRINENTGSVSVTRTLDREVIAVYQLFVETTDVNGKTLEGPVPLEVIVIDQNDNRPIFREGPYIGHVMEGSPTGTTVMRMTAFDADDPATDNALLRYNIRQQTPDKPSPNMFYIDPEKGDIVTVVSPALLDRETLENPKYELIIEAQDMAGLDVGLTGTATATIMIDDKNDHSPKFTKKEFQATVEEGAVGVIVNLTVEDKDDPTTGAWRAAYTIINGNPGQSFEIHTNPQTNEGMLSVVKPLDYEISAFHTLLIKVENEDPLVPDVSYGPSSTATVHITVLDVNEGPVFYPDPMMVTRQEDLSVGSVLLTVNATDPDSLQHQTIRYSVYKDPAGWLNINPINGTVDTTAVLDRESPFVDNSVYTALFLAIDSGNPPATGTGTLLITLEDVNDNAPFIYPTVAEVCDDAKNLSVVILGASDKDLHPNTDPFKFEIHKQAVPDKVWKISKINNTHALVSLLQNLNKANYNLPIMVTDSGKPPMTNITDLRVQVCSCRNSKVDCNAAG", "assay": "cell-based binding, bound adiponectin detected by Western blot of the cell lysate; mouse or human serum diluted in serum-free DMEM applied to transiently transfected HEK293 cells, 4°C, 1 hr, washed three times; lysates on SDS-PAGE or native-PAGE"}, "[3]": {"target": "human calreticulin expressed in HEK293 cells (human) (UniProt P27797)", "assay": "cell-based binding, bound adiponectin detected by Western blot of the cell lysate; mouse or human serum diluted in serum-free DMEM applied to transiently transfected HEK293 cells, 4°C, 1 hr, washed three times; lysates on SDS-PAGE or native-PAGE"}, "[4]": {"target": "T3, PA-tagged mouse T-cadherin stably expressed on CHO cells (mouse) (UniProt Q9WTR5)", "T3 sequence": "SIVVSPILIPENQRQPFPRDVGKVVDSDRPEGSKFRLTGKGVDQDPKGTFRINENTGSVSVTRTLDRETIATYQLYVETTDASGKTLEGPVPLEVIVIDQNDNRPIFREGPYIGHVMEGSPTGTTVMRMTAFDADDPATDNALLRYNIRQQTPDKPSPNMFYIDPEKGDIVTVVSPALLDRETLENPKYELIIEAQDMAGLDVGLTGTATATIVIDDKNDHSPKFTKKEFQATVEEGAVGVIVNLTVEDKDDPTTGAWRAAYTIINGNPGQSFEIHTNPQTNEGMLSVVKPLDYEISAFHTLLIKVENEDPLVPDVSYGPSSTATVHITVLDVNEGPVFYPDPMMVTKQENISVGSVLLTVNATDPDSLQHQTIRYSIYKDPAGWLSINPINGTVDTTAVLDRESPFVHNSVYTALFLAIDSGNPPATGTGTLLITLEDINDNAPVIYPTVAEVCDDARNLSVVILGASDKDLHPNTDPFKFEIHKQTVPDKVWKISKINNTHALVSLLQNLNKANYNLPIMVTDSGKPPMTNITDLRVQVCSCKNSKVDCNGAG", "assay": "cell-based binding, bound adiponectin detected by Western blot of the cell lysate; mouse serum applied to CHO cells stably expressing PA-tagged receptors, 4°C, 1 hr, washed three times"}, "[5]": {"target": "T4, endogenous T-cadherin of C2C12 myotubes (mouse (endogenous in C2C12)) (UniProt Q9WTR5)", "T4 sequence": "T3 sequence", "assay": "cell-based binding, bound adiponectin detected by Western blot of the cell lysate; mouse serum applied to differentiated C2C12 myotubes after RNAi knock-down of T-cadherin, AdipoR1, or AdipoR1 and R2"}, "[6]": {"target": "T5, mouse T-cadherin expressed on HEK293 cells (mouse) (UniProt Q9WTR5)", "T5 sequence": "T3 sequence", "assay": "cell-based binding, bound adiponectin detected by Western blot of the cell lysate; adiponectin purified from mouse serum or recombinant adiponectin applied to transiently transfected HEK293 cells, 4°C, 1 hr; only the binder purified"}, "[7]": {"target": "mouse calreticulin expressed in HEK293 cells (mouse) (UniProt P14211)", "assay": "cell-based binding, bound adiponectin detected by Western blot of the cell lysate; adiponectin purified from mouse serum or recombinant adiponectin applied to transiently transfected HEK293 cells, 4°C, 1 hr; only the binder purified"}, "[8]": {"target": "T6, PA-tagged mouse T-cadherin transiently expressed on HEK293 cells (mouse) (UniProt Q9WTR5)", "T6 sequence": "T3 sequence", "assay": "cell-based binding, bound adiponectin detected by Western blot of the cell lysate; mouse or human serum diluted in serum-free DMEM applied to transiently transfected HEK293 cells, 4°C, 1 hr, washed three times; lysates on SDS-PAGE or native-PAGE"}, "[9]": {"target": "PA-tagged mouse calreticulin transiently expressed in HEK293 cells (mouse) (UniProt P14211)", "assay": "cell-based binding, bound adiponectin detected by Western blot of the cell lysate; mouse or human serum diluted in serum-free DMEM applied to transiently transfected HEK293 cells, 4°C, 1 hr, washed three times; lysates on SDS-PAGE or native-PAGE"}, "[10]": {"target": "T5, mouse T-cadherin expressed on HEK293 cells (mouse)", "assay": "cell-based binding, bound adiponectin detected by Western blot of the cell lysate; mouse or human serum diluted in serum-free DMEM applied to transiently transfected HEK293 cells, 4°C, 1 hr, washed three times; lysates on SDS-PAGE or native-PAGE"}, "[11]": {"target": "mouse calreticulin expressed in HEK293 cells (mouse) (UniProt P14211)", "assay": "cell-based binding, bound adiponectin detected by Western blot of the cell lysate; mouse or human serum diluted in serum-free DMEM applied to transiently transfected HEK293 cells, 4°C, 1 hr, washed three times; lysates on SDS-PAGE or native-PAGE"}, "[12]": {"target": "T7, PA-tagged mouse AdipoR1 stably expressed on CHO cells (mouse), Q91VH1", "T7 chain": "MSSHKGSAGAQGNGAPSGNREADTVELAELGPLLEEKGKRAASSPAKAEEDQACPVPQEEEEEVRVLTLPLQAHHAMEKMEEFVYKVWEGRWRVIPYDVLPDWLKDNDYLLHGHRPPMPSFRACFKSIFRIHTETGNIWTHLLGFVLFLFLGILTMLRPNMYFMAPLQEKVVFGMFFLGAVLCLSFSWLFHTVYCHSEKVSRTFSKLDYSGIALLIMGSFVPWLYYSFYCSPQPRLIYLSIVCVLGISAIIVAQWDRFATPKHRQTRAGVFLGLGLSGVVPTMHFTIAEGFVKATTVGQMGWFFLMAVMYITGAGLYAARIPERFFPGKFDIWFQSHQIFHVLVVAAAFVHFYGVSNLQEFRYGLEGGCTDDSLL", "assay": "cell-based binding, bound adiponectin detected by Western blot of the cell lysate; mouse serum applied to CHO cells stably expressing PA-tagged receptors, 4°C, 1 hr, washed three times", "details": "remark: other sources report otherwise"}, "[13]": {"target": "T8, mouse AdipoR1 expressed on HEK293 cells (mouse), Q91VH1", "T8 chain": "T7 chain", "assay": "cell-based binding, bound adiponectin detected by Western blot of the cell lysate; adiponectin purified from mouse serum or recombinant adiponectin applied to transiently transfected HEK293 cells, 4°C, 1 hr; only the binder purified", "details": "remark: other sources report otherwise"}, "[14]": {"target": "T9, PA-tagged mouse AdipoR1 transiently expressed on HEK293 cells (mouse), Q91VH1", "T9 chain": "T7 chain", "assay": "cell-based binding, bound adiponectin detected by Western blot of the cell lysate; mouse or human serum diluted in serum-free DMEM applied to transiently transfected HEK293 cells, 4°C, 1 hr, washed three times; lysates on SDS-PAGE or native-PAGE", "details": "remark: other sources report otherwise"}, "[15]": {"target": "T8, mouse AdipoR1 expressed on HEK293 cells …", "assay": "cell-based binding, bound adiponectin detected by Western blot of the cell lysate; mouse or human serum diluted in serum-free DMEM applied to transiently transfected HEK293 cells, 4°C, 1 hr, washed three times; lysates on SDS-PAGE or native-PAGE", "details": "remark: other sources report otherwise"}}, "note": "No constants are given. Whether binding was seen depends on the method and setting. Some results given as binding are weak or reduced against the parent protein; the word gives no strength. For part of these data: Where a sequence is shown, tags or fusion partners need not be part of it.", "data": [{"molecule": "native human adiponectin in human serum (from UniProt Q15848 19-244) (ligand)", "values": [{"measurement": "binding", "setting": "[1]", "value": "no binding"}, {"measurement": "binding", "setting": "[2]", "value": "binds"}, {"measurement": "binding", "setting": "[3]", "value": "no binding"}]}, {"molecule": "B1", "values": [{"measurement": "binding", "setting": "[4]", "value": "binds"}, {"measurement": "binding", "setting": "[5]", "value": "binds"}, {"measurement": "binding", "setting": "[6]", "value": "binds"}, {"measurement": "binding", "setting": "[7]", "value": "no binding"}, {"measurement": "binding", "setting": "[8]", "value": "binds"}, {"measurement": "binding", "setting": "[9]", "value": "no binding"}, {"measurement": "binding", "setting": "[10]", "value": "binds"}, {"measurement": "binding", "setting": "[11]", "value": "no binding"}]}, {"molecule": "B2", "values": [{"measurement": "binding", "setting": "[6]", "value": "binds"}, {"measurement": "binding", "setting": "[7]", "value": "no binding"}]}, {"molecule": "B3", "values": [{"measurement": "binding", "setting": "[12]", "value": "no binding"}, {"measurement": "binding", "setting": "[13]", "value": "no binding"}, {"measurement": "binding", "setting": "[14]", "value": "no binding"}, {"measurement": "binding", "setting": "[15]", "value": "no binding"}]}, {"molecule": "B4", "values": [{"measurement": "binding", "setting": "[13]", "value": "no binding"}]}]}
